Assay results as given in article PMC4336329 (PLoS ONE, 2015).
The whole screen tested about 310,000 compounds, of which about 2,200 (0.71%) showed an effect of 50% or more. The effect is printed as a negative number. This is one part of the list.

The molecules below were run against human ether-à-go-go-related gene (hERG) potassium channel (human, UniProt Q12809) (assay: primary screen, population patch clamp on CHO cells stably expressing hERG).
human ether-à-go-go-related gene (hERG) potassium channel, sequence (Q12809 whole entry, looked up): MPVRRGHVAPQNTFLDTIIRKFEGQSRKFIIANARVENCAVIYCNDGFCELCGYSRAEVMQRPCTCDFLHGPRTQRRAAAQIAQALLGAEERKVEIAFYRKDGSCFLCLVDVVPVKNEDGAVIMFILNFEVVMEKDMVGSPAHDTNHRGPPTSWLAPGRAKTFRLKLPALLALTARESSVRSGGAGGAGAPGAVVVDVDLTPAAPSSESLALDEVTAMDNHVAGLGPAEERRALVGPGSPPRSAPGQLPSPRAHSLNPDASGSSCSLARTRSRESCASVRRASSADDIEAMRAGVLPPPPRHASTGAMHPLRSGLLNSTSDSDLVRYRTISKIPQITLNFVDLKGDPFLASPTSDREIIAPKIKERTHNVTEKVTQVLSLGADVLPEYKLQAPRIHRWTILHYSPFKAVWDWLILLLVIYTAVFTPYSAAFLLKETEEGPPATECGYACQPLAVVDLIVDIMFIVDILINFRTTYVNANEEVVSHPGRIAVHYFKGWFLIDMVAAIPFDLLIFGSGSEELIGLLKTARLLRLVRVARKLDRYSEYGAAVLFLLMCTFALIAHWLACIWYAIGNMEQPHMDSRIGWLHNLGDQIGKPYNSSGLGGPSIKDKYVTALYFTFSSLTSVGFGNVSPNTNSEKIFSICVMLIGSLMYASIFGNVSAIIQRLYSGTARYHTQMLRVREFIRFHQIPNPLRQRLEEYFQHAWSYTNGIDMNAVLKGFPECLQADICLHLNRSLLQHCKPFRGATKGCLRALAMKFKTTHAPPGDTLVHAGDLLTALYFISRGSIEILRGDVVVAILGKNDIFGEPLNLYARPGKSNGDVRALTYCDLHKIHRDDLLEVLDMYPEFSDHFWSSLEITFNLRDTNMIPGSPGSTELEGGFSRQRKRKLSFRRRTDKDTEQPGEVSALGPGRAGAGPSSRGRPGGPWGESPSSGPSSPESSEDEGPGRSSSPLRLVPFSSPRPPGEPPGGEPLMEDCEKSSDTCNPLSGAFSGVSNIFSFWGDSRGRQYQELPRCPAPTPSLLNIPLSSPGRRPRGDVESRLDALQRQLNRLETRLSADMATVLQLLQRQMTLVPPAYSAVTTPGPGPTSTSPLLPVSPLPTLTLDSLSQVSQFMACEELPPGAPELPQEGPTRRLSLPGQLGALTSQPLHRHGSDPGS

Row | Structure (SMILES) | hERG current change (%, negative = inhibition) at 1uM [%]
1 | O=C(O)CCCC(=O)Nc1ccc(Oc2ncnc3cc(Cl)ccc23)nc1 | 4.36
2 | CC(C)c1ccc(NC(=O)C2CC(=O)Nc3nc4ccccc4n32)cc1 (stereo not drawn) | 18.6
3 | O=C(NC1CCCC1)c1cc(COc2ccc3ncccc3c2)on1 | 7.53
4 | COC(=O)C1C/C(=N/NS(=O)(=O)c2ccc(C)cc2)CS1 (stereo not drawn) | 12.5
5 | CC1=Nc2ccccc2N=C(NC(=O)CSc2nnnn2-c2ccccc2)C1c1ccccc1 (stereo not drawn) | 12.2
6 | O=C(O)C1CC=CCC1C(=O)Nc1ccccc1Cl (stereo not drawn) | 10.9
7 | Cn1cccc1/C=C1\SC(=S)N(NC(=O)c2ccc(Cl)cc2)C1=O | 17.6
8 | Cc1cc(/C=C(\C#N)C(=O)Nc2ccc(F)cc2)c(C)n1-c1ccc(N2CCOCC2)c([N+](=O)[O-])c1 | 0.296
9 | CC1=C(C(=O)O)N2C(=O)C(NC(=O)CCCC(=O)O)C2SC1 (stereo not drawn) | 10
10 | O=c1c(-c2ccc(F)cc2)coc2cc(O)ccc12 | 5.42
11 | Fc1ccc(NC(=S)Nc2cc(Cl)ccc2Cl)cc1 | 13.9
12 | COc1ccc(C(=O)O)cc1S(=O)(=O)N1CCCc2ccccc21 | 16.8
13 | COC(=O)c1ccc(CN2CCCC(C(=O)Nc3cccc(-n4cccn4)c3)C2)cc1 (stereo not drawn) | 12.7
14 | CN(C)c1ccc(/C=N/NC(=O)CSc2ccccn2)cc1 | 15.7
15 | O=C(CSc1nc2[nH]ncc2c(=O)[nH]1)c1ccc(Cl)cc1 | 6.83
16 | CN(C)c1ccc(C=C(c2nnnn2-c2ccccc2)c2nnnn2-c2ccccc2)cc1 | 12.7
17 | NC(=O)c1cc(Cl)ccc1OCC(=O)Nc1ccc2c(c1)OCO2 | 2.94
18 | O=C(CN1C(=O)CSC1=O)Nc1ccc(F)c(F)c1F | 8.29
19 | COc1ccc(/C=N/NC(=O)c2cc[n+]([O-])cc2)cc1 | 13
20 | Cl.NCC(c1ccccc1)(c1ccccc1)c1ccccc1 | 9.03
21 | O=C(O)c1cc(-c2ccccc2)n[nH]1 | 11.4
22 | CCOC(=O)C1CCCN(S(=O)(=O)c2cc(C(=O)OC)n(C)c2)C1 (stereo not drawn) | 18.3
23 | CCOc1ccc(CC(=O)Nc2c(C(N)=O)oc3ccccc23)cc1OCC | 13.6
24 | Cc1ccc(OCC(=O)NNC(=S)NC(=O)c2cccs2)c(C)c1 | 16.1

Row | Structure (SMILES) | hERG current change (%, negative = inhibition) at 1uM [%]
25 | O=C1NN(c2ccc(F)cc2)C(=O)/C1=C\c1cnn(-c2ccccc2)c1 | 5
26 | O=C(c1ccc(F)cc1)C1CCN(C(=O)NCc2ccccc2)CC1 | -5.59
27 | COc1cccc(C(=O)Nc2c3c(nn2-c2ccc([N+](=O)[O-])cc2)CS(=O)(=O)C3)c1 | -16.8
28 | CSc1ncccc1C(=O)NCc1ccc(C)cc1 | 13.7
29 | CCCC1=NN2C(=N)/C(=C\c3cc(C)n(-c4cccc(C)c4)c3C)C(=O)N=C2S1 | 9.49
30 | COC(=O)N/N=C/c1cn(CCOc2ccccc2)c2ccccc12 | 13.5
31 | N#CC1=C(N)Oc2cc(O)c(Cl)cc2C1c1ccccc1F (stereo not drawn) | 4.36
32 | COc1cccc(NC(=O)C2CCCN(S(=O)(=O)c3cccc4nsnc34)C2)c1 (stereo not drawn) | 7.5
33 | C/C(=N\Nc1nncc2ccccc12)c1ccc(Cl)c([N+](=O)[O-])c1 | 14.5
34 | NNC(=O)c1oc2nc(-c3ccc(Cl)cc3)cc(-c3ccccc3)c2c1N | 16.4
35 | Cc1cc(C)c2ccc(Cl)cc2n1 | 13.5
36 | Cc1cc(OC(=O)c2c(Cl)cccc2Cl)nc(C)n1 | -7.43
37 | Cc1cc(NC(=O)C2C3C(=O)N(c4cccnc4)C(C(=O)NC(C)(C)C)C34C=CC2(C)O4)no1 (stereo not drawn) | 26.4
38 | CCOC(=O)CSC(CC)C(=O)Nc1nnc(C(C)C)s1 (stereo not drawn) | 4.92
39 | N#Cc1cc2ccccc2nc1SCC(=O)Nc1ccc(S(=O)(=O)N2CCCC2)cc1 | 11.9
40 | COc1ccc(Cn2nnnc2C(C(C)C)N2CCc3ccccc32)cc1 (stereo not drawn) | 3.74
41 | Cc1ccc(OCc2ccc(Br)cc2)c([N+](=O)[O-])n1 | 7.33
42 | Cn1c(C(C#N)C2=C(Cl)C(=O)N(c3ccccc3)C2=O)nc2ccccc21 (stereo not drawn) | 6.28
43 | O=C(c1cccc(C(F)(F)F)c1)C1CCCN(Cc2cccn2-c2ccccn2)C1 (stereo not drawn) | -90.4
44 | O=C(NCc1cccs1)c1ccc(Br)o1 | 11.9
45 | COc1cc(CNCCc2ccc(S(N)(=O)=O)cc2)ccc1OCC(=O)NC1CCCCC1.Cl | 23.4
46 | NC(=O)C1CN(C(=O)c2cccc(S(=O)(=O)N3CCc4ccccc43)c2)c2ccccc2O1 (stereo not drawn) | 9.66
47 | CCC1C/C(=C\c2cc(OC)c(OC)cc2OC)C(=O)/C(=C/c2cc(OC)c(OC)cc2OC)C1 (stereo not drawn) | 13.8
48 | O=C(c1cccc(S(=O)(=O)NCc2ccc3c(c2)OCO3)c1)N1CCCC1 | 6.84
